From PMC11995724, “Antibiotic target discovery by integrated phenotypic and activity-based profiling of electrophilic fragments” (Cell chemical biology, 2025)
In all, about 3,200 compounds went through this assay and about 75 (2%) showed an effect of 50% or more. The list shows a part of the results.

Test system: T1, S. aureus MSSA476
T1 construct: MSSA476
Design: species or system S. aureus MSSA476 (TSB) or V. cholerae SAD30 (LB); 384-well bacterial growth screen at 25 uM, OD600 relative to DMSO control
Conditions: relative growth, OD600, TSB; 25 µM; inhibitor

Compound	% of control remaining
N#CC(=Cc1ccc(Cl)cc1)C(=O)Nc1cccc2c1C(=O)NC2=O [9-D09, 3-(4-chlorophenyl)-2-cyano-N-(1,3-dioxo-2,3-dihydro-1H-isoindol-4-yl)prop-2-enamide]	103.371%
C=CC(=O)NC(CN1CCCS1(=O)=O)C1CC1 (stereo not shown) [1-H10, N-[1-cyclopropyl-2-(1,1-dioxo-1lambda6,2-thiazolidin-2-yl)ethyl]prop-2-enamide]	87.5604%
C=CC(=O)Nc1ccc(C(=O)N[C@H]2COC[C@@H]2OC)cc1 (racemic) [3-C08, rac-N-[(3R,4S)-4-methoxyoxolan-3-yl]-4-(prop-2-enamido)benzamide]	97.1702%
CC(Cl)C(=O)NCCc1nnc2n1CCCCC2 (stereo not shown) [7-D09, 2-chloro-N-(2-{5H,6H,7H,8H,9H-[1,2,4]triazolo[4,3-a]azepin-3-yl}ethyl)propanamide]	92.3077%
CCS(=O)(=O)c1ccc(NC(=O)CCl)c(O)c1 [4-P21, 2-chloro-N-[4-(ethanesulfonyl)-2-hydroxyphenyl]acetamide]	107.861%
Cc1cc(C(=O)CCl)c(C)n1CCc1ccc(F)cc1 [10-G14, 2-chloro-1-{1-[2-(4-fluorophenyl)ethyl]-2,5-dimethyl-1H-pyrrol-3-yl}ethan-1-one]	123.75%
C=CC(=O)N(C)CC(=O)N1CCC[C@H](NC(=O)C(F)(F)F)[C@@H]1C (racemic) [2-A20, rac-N-methyl-N-{2-[(2R,3R)-2-methyl-3-(2,2,2-trifluoroacetamido)piperidin-1-yl]-2-oxoethyl}prop-2-enamide]	147.607%
CCCNC(=O)C(C#N)=Cc1ccns1 [9-G03, 2-cyano-N-propyl-3-(1,2-thiazol-5-yl)prop-2-enamide]	134.831%
COc1cc(C=C(C#N)C(=O)NC2CC2)ccc1O [9-G12, 2-cyano-N-cyclopropyl-3-(4-hydroxy-3-methoxyphenyl)prop-2-enamide]	96.4794%
N#CC(=Cc1ccccc1OC(F)F)C(=O)Nc1ccccc1F [8-K21, 2-cyano-3-[2-(difluoromethoxy)phenyl]-N-(2-fluorophenyl)prop-2-enamide]	118.506%
CC(C)c1cc(O)nc(N2CCC(NC(=O)CCl)C2)n1 (stereo not shown) [4-D13, 2-chloro-N-{1-[4-hydroxy-6-(propan-2-yl)pyrimidin-2-yl]pyrrolidin-3-yl}acetamide]	105.193%
Cc1noc(C)c1S(=O)(=O)N1CCCN(C(=O)C(C)Cl)CC1 (stereo not shown) [7-O11, 2-chloro-1-{4-[(3,5-dimethyl-1,2-oxazol-4-yl)sulfonyl]-1,4-diazepan-1-yl}propan-1-one]	98.2732%
Cl.O=C(CCl)NCC1CN(Cc2ccccc2)CC12CCC2 (stereo not shown) [7-H03, N-({6-benzyl-6-azaspiro[3.4]octan-8-yl}methyl)-2-chloroacetamide hydrochloride]	94.5055%
COc1ccc(C=C(C#N)C(=O)Nc2cccc([N+](=O)[O-])c2)cc1 [8-I03, 2-cyano-3-(4-methoxyphenyl)-N-(3-nitrophenyl)prop-2-enamide]	124.813%
Cc1cc(C(=O)CCl)c(C)n1CCC(C)C [10-L03, 2-chloro-1-[2,5-dimethyl-1-(3-methylbutyl)-1H-pyrrol-3-yl]ethan-1-one]	114.687%
C=CC(=O)NC1(Cc2ccccc2)CC1 [3-P13, N-(1-benzylcyclopropyl)prop-2-enamide]	84.9804%
N#CC(C(=O)CCl)=C(c1ccc(F)cc1)N1CCOCC1 [10-C20, 4-chloro-2-[(4-fluorophenyl)(morpholin-4-yl)methylidene]-3-oxobutanenitrile]	107.5%
O=C(CCl)NC1CN(C(=O)C2CC2)C1 [6-P22, 2-chloro-N-(1-cyclopropanecarbonylazetidin-3-yl)acetamide]	91.1707%
COc1ccc(C=C(C#N)C(=O)Nc2ccc(C)cc2)cc1O [9-O12, 2-cyano-3-(3-hydroxy-4-methoxyphenyl)-N-(4-methylphenyl)prop-2-enamide]	114.757%
C=CC(=O)N1CCCC1c1c(C)nn(CC(C)C)c1Cl (stereo not shown) [1-F19, 1-{2-[5-chloro-3-methyl-1-(2-methylpropyl)-1H-pyrazol-4-yl]pyrrolidin-1-yl}prop-2-en-1-one]	109.714%
CN(C)C(=O)C(CNC(=O)CCl)c1ccccc1 (stereo not shown) [7-J12, 3-(2-chloroacetamido)-N,N-dimethyl-2-phenylpropanamide]	108.948%
CN(CC(=O)Nc1ccc(Cl)cc1)C(=O)CCl [4-D03, 2-chloro-N-{[(4-chlorophenyl)carbamoyl]methyl}-N-methylacetamide]	80.0381%

Compound	% of control remaining
Cc1cc(CN(Cc2cnn(C)c2)C(=O)CCl)ccc1Cl [5-G12, 2-chloro-N-[(4-chloro-3-methylphenyl)methyl]-N-[(1-methyl-1H-pyrazol-4-yl)methyl]acetamide]	116.211%
O=C(CCl)NC(c1ccccc1)C1CCCC1 (stereo not shown) [6-O18, 2-chloro-N-[cyclopentyl(phenyl)methyl]acetamide]	82.9756%
C=CC(=O)N1CCCC(S(C)(=O)=O)C1 (stereo not shown) [1-J18, 1-(3-methanesulfonylpiperidin-1-yl)prop-2-en-1-one]	119.209%
O=C(CCl)Nc1ccc(S(=O)(=O)Nc2ccccc2)cc1 [5-K22, 2-chloro-N-[4-(phenylsulfamoyl)phenyl]acetamide]	99.4536%
O=C(CCl)N1N=C(c2cccs2)CC1c1cccs1 (stereo not shown) [4-O18, 1-[3,5-bis(thiophen-2-yl)-4,5-dihydro-1H-pyrazol-1-yl]-2-chloroethan-1-one]	105.193%
C=CC(=O)NCCNC(=O)c1c(C)cc(C)nc1C [2-I12, N-{2-[(2,4,6-trimethylpyridin-3-yl)formamido]ethyl}prop-2-enamide]	130.548%
C=CC(=O)N1CCn2c(nnc2C2CCCC2)C1 [3-C09, 1-{3-cyclopentyl-5H,6H,7H,8H-[1,2,4]triazolo[4,3-a]pyrazin-7-yl}prop-2-en-1-one]	108.663%
C=CC(=O)N(Cc1cn(C)cn1)[C@H]1CCCc2ccc(C)cc21 [1-J11, N-[(1S)-7-methyl-1,2,3,4-tetrahydronaphthalen-1-yl]-N-[(1-methyl-1H-imidazol-4-yl)methyl]prop-2-enamide]	110.769%
CN(CC(=O)Nc1cccc(Cl)c1)C(=O)CCl [5-F18, 2-chloro-N-{[(3-chlorophenyl)carbamoyl]methyl}-N-methylacetamide]	104.554%
CC(Cl)C(=O)NC1(C(=O)Nc2ccccc2)CC1 (stereo not shown) [7-K14, 1-(2-chloropropanamido)-N-phenylcyclopropane-1-carboxamide]	101.413%
C=CC(=O)N(Cc1cn(C)nc1C)c1ccc2c(c1)OCCO2 [1-P13, N-(2,3-dihydro-1,4-benzodioxin-6-yl)-N-[(1,3-dimethyl-1H-pyrazol-4-yl)methyl]prop-2-enamide]	87.9121%
Cc1c(C#N)c(NC(=O)CCl)n(Cc2ccco2)c1C [4-D09, 2-chloro-N-{3-cyano-1-[(furan-2-yl)methyl]-4,5-dimethyl-1H-pyrrol-2-yl}acetamide]	96.0457%
C=CC(=O)Nc1sc2c(c1C(N)=O)CCCCC2 [1-F21, 2-(prop-2-enamido)-4H,5H,6H,7H,8H-cyclohepta[b]thiophene-3-carboxamide]	84.7473%
Cc1nn(CC(F)(F)F)c(C)c1C1COCCN1C(=O)CCl (stereo not shown) [5-J13, 2-chloro-1-{3-[3,5-dimethyl-1-(2,2,2-trifluoroethyl)-1H-pyrazol-4-yl]morpholin-4-yl}ethan-1-one]	111.475%
C=CC(=O)NCC1(S(=O)(=O)CC)CC1 [3-O13, N-{[1-(ethanesulfonyl)cyclopropyl]methyl}prop-2-enamide]	91.2495%
C=CC(=O)Nc1cc(C(C)C)ccc1C(C)C [1-I21, N-[2,5-bis(propan-2-yl)phenyl]prop-2-enamide]	94.2418%
CCOc1ccccc1C=C(C#N)C(=O)Nc1ccc(Cl)cc1 [8-B09, N-(4-chlorophenyl)-2-cyano-3-(2-ethoxyphenyl)prop-2-enamide]	87.3029%
Cc1cccc(NC(=O)NC(=O)CCl)c1C [4-D21, 3-(2-chloroacetyl)-1-(2,3-dimethylphenyl)urea]	117.77%
C=CC(=O)N1CCC(c2nc3ccccc3o2)CC1 [1-N18, 1-[4-(1,3-benzoxazol-2-yl)piperidin-1-yl]prop-2-en-1-one]	131.516%
COc1ccc(C(NC(=O)CCl)C(C)C)cc1 (stereo not shown) [4-A13, 2-chloro-N-[1-(4-methoxyphenyl)-2-methylpropyl]acetamide]	128.442%
O=C1C=CC(=O)N1c1ccc(F)cc1 [10-M10, 1-(4-fluorophenyl)-2,5-dihydro-1H-pyrrole-2,5-dione]	118.75%
